Assay results taken from PubChem BioAssay AID624417 (National Center for Advancing Translational Sciences (NCATS), 2012).
Screen size: about 410,000 compounds; about 6,400 (1.6%) were called active. Inconclusive means that the source gave no clear call. Such entries were picked first, then a sample of the others. The call rests on the fitted dose curve; in most records, active means well fitted inhibition curve with a large enough effect; inconclusive means small, poorly fitted or top-dose-only effect; inactive means no such curve, though single readings can be large or run the other way. Where the call is inconclusive, the potency comes from a doubtful curve fit.

target: Glucagon-like peptide 1 receptor (Homo sapiens) (UniProt P43220); assay: qHTS of GLP-1 Receptor Inverse Agonists (Inhibition Mode); conditions: HEK293 GLP-1R CRE-luciferase, luminescence, 24 h, GLP-1R form is constitutively active; activity change, negative = inhibition: at 38.3 µM (top of the series) unless noted; further: nearly all actives have a fitted effect of over 55% in size
Procedure, shortened: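 Inverse agonism was detected as reduced cAMP-driven luciferase luminescence after 24 h compound treatment. The cells were HEK293 clones expressing constitutively active human GLP-1R with the reporter. Reporter-only and GPR119 cell lines served as counterscreen controls.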
On the % scale 0 is the no-effect control and ±100 the full control effect; potency means the concentration at half of the fitted maximal effect; tags describe the fitted curve by direction and shape.

Sequence of UniProt P43220 (P43220 whole entry, looked up): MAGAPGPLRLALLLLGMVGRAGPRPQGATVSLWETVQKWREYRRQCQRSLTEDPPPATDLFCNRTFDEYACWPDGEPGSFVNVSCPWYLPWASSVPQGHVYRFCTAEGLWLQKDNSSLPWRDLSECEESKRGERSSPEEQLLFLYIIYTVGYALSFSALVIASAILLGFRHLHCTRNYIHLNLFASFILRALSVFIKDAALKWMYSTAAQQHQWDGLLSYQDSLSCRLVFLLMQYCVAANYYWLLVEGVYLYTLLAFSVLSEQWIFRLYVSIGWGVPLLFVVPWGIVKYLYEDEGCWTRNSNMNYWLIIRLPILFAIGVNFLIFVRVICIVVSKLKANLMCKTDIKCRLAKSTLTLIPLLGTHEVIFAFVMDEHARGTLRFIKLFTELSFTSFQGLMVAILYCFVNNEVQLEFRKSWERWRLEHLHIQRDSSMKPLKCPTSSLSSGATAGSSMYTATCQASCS

| SMILES | Potency | activity change, negative = inhibition |
| --- | --- | --- |
| CC1CCc2sc(C(=O)NNS(=O)(=O)c3ccc(F)c(F)c3F)cc2C1 (centres undefined) | inconclusive: 31.6 µM [inhibitor, single point] |  |
| Cc1ccc(N(C)C(=O)c2noc3c2CCCCC3)cc1C | inactive |  |
| O=C(CCc1nnc(Cc2c[nH]c3ccccc23)o1)NCC1CC12CCCCC2 (centres undefined) | inconclusive: 11.2 µM [inhibitor, single point] |  |
| COc1ccc(Br)cc1/C=N/NC(=O)CNC(=O)C1COc2ccccc2O1 (centres undefined) | inconclusive: 28.2 µM [inhibitor, single point] |  |
| Cc1cccc(C)c1OCC(=O)NNC(=O)CCNC(=O)c1ccc(Br)cc1 | inconclusive: 3.16 µM [inhibitor, partial curve] |  |
| Cc1ccc([C@@H]2CC=C(C(=O)O)[C@H](c3ccc(Cl)cc3)N2S(=O)(=O)c2ccccc2C)cc1 | active: 8.91 µM |  |
| CCN(CC)C1=N/C(=C\c2ccc(OC)cc2)C(=O)N1c1ccccc1 | inconclusive: 22.4 µM [inhibitor, single point] |  |
| O=C(CCC(=O)N1CCOc2ccccc21)NCCCN1CCCCC1 | inactive |  |
| O=C(NCCCN1CCCC1)c1ccc2c(c1)N(Cc1ccccc1F)C(=O)c1ccccc1S2(=O)=O | inconclusive: 7.94 µM [inhibitor, partial curve] |  |
| COc1ccc(/C=N/NC(=O)CCSc2nc3ccccc3s2)cc1 | inconclusive: 15.8 µM [inhibitor, partial curve, poor fit] |  |
| COc1cc(NC(=O)C2=C(C)OCCS2)c(Cl)cc1C(=O)NCCCN1CCCC(C)C1 (centres undefined) | inactive |  |
| FC(F)C(F)(F)Oc1cccc(Nc2nccn3c(-c4cccc5ccccc45)cnc23)c1 | inconclusive: 10 µM [inhibitor, partial curve, poor fit] |  |
| O=C(Nc1ccc(-c2ccc([N+](=O)[O-])cc2)cc1)c1ccccc1F | inactive |  |
| O=C(C1CCCCC1)N1C[C@H](n2cc(-c3ccc(F)cc3)nn2)[C@@H](O)C[C@@H]1c1ccc(Cl)cc1 | inconclusive: 11.2 µM [inhibitor, partial curve, poor fit] |  |
| COc1ccc(NC(=S)N(CCN2CCOCC2)Cc2ccccc2F)cc1 | inconclusive: 31.6 µM [inhibitor, partial curve, poor fit] |  |
| CCC(CCCO)CCC[C@H](C)CCC1OCCO1 (some centres undefined) | active: 8.91 µM |  |
| O=C1OCCN1C(=O)[C@H]1[C@H](c2ccc(Cl)cc2)C(c2ccccc2)=NN1c1ccc(Br)cc1 | inconclusive: 12.6 µM [inhibitor, single point] |  |
| COc1ccc(CCNC(=S)Nc2ccc(C(C)C)cc2)cc1 | inconclusive: 14.1 µM [inhibitor, single point] |  |
| O=C(COC(=O)C1CCCCC1C(=O)N1CCc2ccccc21)NCc1ccco1 (centres undefined) | inconclusive: 11.2 µM [inhibitor, single point] |  |
| CCc1ccccc1N1CC(c2nc3ccccc3n2CCC2CCCCC2)CC1=O (centres undefined) | inconclusive: 10 µM [inhibitor, partial curve, poor fit] |  |

| SMILES | Potency | activity change, negative = inhibition |
| --- | --- | --- |
| COc1ccc(S(=O)(=O)Nc2c(O)ccc3ccccc23)cc1OC | inconclusive: 22.4 µM [inhibitor, single point] |  |
| C#Cc1ccc(NC(=O)C2(C)CCN2C(=O)C2(c3ccccc3)CCCC2)cc1 (centres undefined) | inconclusive: 11.2 µM [inhibitor, partial curve, poor fit] |  |
| Cc1cccc(-n2cc(CN3CCCN(C=O)CC3)c(-c3cccc(F)c3)n2)c1 |  | inconclusive: -34.1% [inhibitor] [at 7.66 µM] |
| Cc1cccc(NC(=O)/C(C#N)=C/c2cccc([N+](=O)[O-])c2)n1 | inconclusive: 5.62 µM [inhibitor, partial curve, poor fit] |  |
| CC(C)c1ccc(NC(=O)CSC2=Nc3ccccc3C3=NC(CC(=O)NCc4ccco4)C(=O)N23)cc1 (centres undefined) | inconclusive: 11.2 µM [inhibitor, partial curve, poor fit] |  |
| O=C(CSc1nnc(SCc2ccccc2)s1)N/N=C/C=C\c1ccco1 | inactive |  |
| O=C(NCc1nnc(SCc2ccc(F)cc2)n1-c1ccc(F)cc1)C12CC3CC(CC(C3)C1)C2 | active: 7.08 µM |  |
| Cc1cccc(NC(=S)N/N=C(\c2ccccc2)C(C)C)c1 | inconclusive: 3.55 µM [inhibitor, partial curve] |  |
| COc1ccccc1-c1cc2nc(C)c(CCC(=O)NC(C)CCc3ccco3)c(C)n2n1 (centres undefined) | inconclusive: 14.1 µM [inhibitor, single point] |  |
| CCCCCCN1C[C@@H](n2cc(C3CC3)nn2)[C@H](O)C[C@@H]1c1ccc(OC)cc1 | inconclusive: 31.6 µM [inhibitor, partial curve, poor fit] |  |
| Cc1ccc(S(=O)(=O)N(CCC(=O)Nc2ccc(OC(F)(F)F)cc2)c2ccccc2)cc1 | inconclusive: 28.2 µM [inhibitor, single point] |  |
| Cc1cccc(NC(=O)c2ccc(NS(=O)(=O)c3cccc4cccnc34)cc2)c1 | inconclusive: 28.2 µM [inhibitor, single point] |  |
| CCCOc1ccccc1C(=O)Nc1nc2c(s1)CCCC2 | inconclusive: 28.2 µM [inhibitor, single point] |  |
| COC(=O)c1cccc(NC(=O)c2ccc(OC)c(Cl)c2)c1 | inconclusive: 28.2 µM [inhibitor, single point] |  |
| Cc1ccc(-n2nc(C)c(C(=O)NCCCN3CCN(c4ccccc4F)CC3)c2-n2cccc2)cc1 | inconclusive: 11.2 µM [inhibitor, partial curve, poor fit] |  |
| O=[N+]([O-])c1ccc(NC2CCCCC2)nc1 | inconclusive: 28.2 µM [inhibitor, single point] |  |
| O=C(Nc1ccccc1)C1=C[C@@H](c2ccc(C(F)(F)F)cc2)C[C@@H](OCCCCO)O1 | inconclusive: 12.6 µM [inhibitor, single point] |  |
| Brc1ccc(-c2csc(N3CCCCCC3)n2)cc1 | inactive |  |
| CC(NC(=O)Cc1ccc(NC(=O)N2CCCCc3ccccc32)cc1)c1ccccc1 (centres undefined) | inconclusive: 22.4 µM [inhibitor, partial curve, poor fit] |  |
